Laboratory results reported in PubChem BioAssay AID686978 (National Center for Advancing Translational Sciences (NCATS), 2013).
Screen size: about 420,000 compounds; about 64,000 (15%) were called active. The inconclusive results got no clear call from the source; some entries with a clear call stand among them for comparison. Calls come from the whole dose curve; as a rule, active = well fitted inhibition curve with a large enough effect; inconclusive = small, poorly fitted or top-dose-only effect; inactive = flat fitted curve, though single readings scatter. Potencies of inconclusive entries are left out as doubtful fits.
% is set by controls: 0 for no effect and ±100 for the full control effect; potency is the fitted concentration of half-maximal effect; tags give direction and shape of the fitted curve.

Experiment: qHTS for Inhibitors of human tyrosyl-DNA phosphodiesterase 1 (TDP1): qHTS in cells in absence of CPT; note: nearly all actives have a fitted effect of over 55% in size
Details: DT40 Tdp1-/- hTDP1 cells, no CPT, ATP luminescence, 48 h; activity change, negative = growth inhibition: at 46.2 µM (top of the series)
How it was run: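 Readout: luminescence from CellTiter-Glo after 30 min in the dark at RT. Cells: DT40 Tdp1-/- with stable hTDP1, 400/well. Exposure: compounds alone, ≥48 hr, 37 °C.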
In the case of Cc1nc(N2CCCC2)c2c(C(=O)N3CCN(c4ccc(F)cc4)CC3)c(C)oc2n1, the Potency is reported as “inactive”.
For C=CCN(C(=O)CNC(=O)c1ccco1)C(C(=O)NC1CCCCC1)c1cccnc1 (centres undefined), the Potency was “inactive”.
In the case of CCCS(=O)(=O)N1CCN(Cc2ccc3c(c2)c2ccccc2n3CC)CC1, the Potency is reported as inconclusive [inhibitor, single point].
For CCc1cc(-c2n[nH]c(C)c2-c2nc3ccccc3n2C)c(O)cc1O, the Potency was active: 18.4 µM.
In the case of COc1ccc(-c2ccc(F)cc2)cc1[C@H]1[C@H]2C=CC[C@@H](C)[C@@H]2C(=O)N1Cc1ccccc1, the Potency is reported as inconclusive [inhibitor, single point].
In the case of Cc1ccc(-c2nnc(Nc3ccc(Br)cc3)c3ccccc23)cc1S(=O)(=O)NCC1CCCO1 (centres undefined), the Potency is reported as active: 4.11 µM.
With O=c1[nH]c(/C=C/c2ccccc2Cl)nc2ccccc12 the Potency was inconclusive [inhibitor, partial curve].
For CN(C)c1ccc(-c2nc3n(n2)C(c2cccnc2)C2=C(CC(C)(C)CC2=O)N3)cc1 (centres undefined), the Potency was inconclusive [inhibitor, partial curve, poor fit].
With COc1cc(OC)cc(C(=O)N(Cc2ccco2)c2c(N)n(Cc3ccccc3)c(=O)[nH]c2=O)c1 the Potency was “inactive”.
With CCn1c(=O)n(CC(=O)N2CCN(c3ccccc3F)CC2)c(=O)c2ccccc21 the Potency was inconclusive [inhibitor, single point].
In the case of COC(=O)c1ccc(OCC2c3cc(OC)c(OC)cc3CCN2C(=O)c2ccccc2C)cc1 (centres undefined), the Potency is reported as inconclusive [inhibitor, single point].
In the case of O=c1cc(CSc2nnnn2-c2ccc(O)cc2)nc2sccn12, the Potency is reported as inconclusive [inhibitor, single point].
With Cc1onc(-c2c(F)cccc2Cl)c1C(=O)Nc1ccc(S(=O)(=O)N2CCOCC2)cc1 the Potency was inconclusive [inhibitor, single point].
In the case of Cc1cccc(N2CCN(C(=O)Cn3ncc4c3-c3cc(C)ccc3OC4)CC2C)c1 (centres undefined), the Potency is reported as active: 23.1 µM.
In the case of CCOc1ccc(NCc2cccn2-c2nnc(N3CCC(C(=O)NCCCN4CCCCC4CC)CC3)s2)cc1 (centres undefined), the Potency is reported as inconclusive [inhibitor, single point].
In the case of Cc1c(NC(=S)NC(=O)c2ccco2)cccc1-c1nc2ncccc2o1, the Potency is reported as inconclusive [inhibitor, single point].
For COc1cccc(-c2cc(C(=O)N3CCN(C(=O)c4ccco4)CC3)[nH]n2)c1, the Potency was inconclusive [inhibitor, full curve, poor fit].
For Cc1oc(-c2ccc(F)cc2)nc1CN(Cc1ccccn1)CC1CCCO1 (centres undefined), the Potency was active: 29.1 µM.
With Cc1c(/C=C2\SC(=O)N(CC(=O)Nc3ccc4c(c3)OCO4)C2=O)c2ccccc2n1C the Potency was inconclusive [inhibitor, partial curve].
In the case of COc1cc(/C=C2\SC(c3ccc(C)cc3)=NC2=O)cc(OC)c1O, the Potency is reported as inconclusive [inhibitor, partial curve].
For Cc1ccccc1CN1CCN(CC(=O)NCCCN2CCN(c3ccc(F)cc3)CC2)C1=O, the Potency was active: 13 µM.
For O=C(NCCC(=O)N1CCN(c2cccc(Cl)c2)CC1)c1ccc(Br)cc1, the Potency was inconclusive [inhibitor, partial curve, poor fit].
For CC(c1ccccc1)N1CCC(CNC(=S)Nc2cccc(Cl)c2)C1 (centres undefined), the Potency was inconclusive [inhibitor, single point].
For O=C(O)c1cccc(Cn2c(Cl)c(/C=N/NC(=O)c3cccc(O)c3)sc2=O)c1, the Potency was “inactive”.
With CC[C@]1(C(=O)OC)[C@H]2C(=O)N(C)C(=O)[C@H]2[C@H]2CN=C(SCc3ccc(Cl)cc3)N21 the Potency was inconclusive [inhibitor, single point].
For Cc1nn(Cc2ccc(C(=O)NN)o2)c(C)c1Cl, the Potency was “inactive”.
With COC(=O)C1=C(C)OC(N)=C(C#N)C1c1cc2cc(C)ccc2nc1Cl (centres undefined) the activity change, negative = growth inhibition was inconclusive: -32.4% [inhibitor].
For CCCCNC(=O)C1(C)CCCCN1C(=O)c1cc(C#N)cs1 (centres undefined), the Potency was “inactive”.
For NC(c1ccccc1)c1cccnc1 (centres undefined), the Potency was “inactive”.
In the case of COc1ccc(CCn2c3c(c(=O)[nH]c2=S)CN(C(C)C)CN3)cc1OC, the Potency is reported as inconclusive [inhibitor, single point].
For Cc1sc2nc(COC(=O)c3cccc(OC(F)F)c3)[nH]c(=O)c2c1C, the Potency was inconclusive [inhibitor, single point].
For COC(CNC(=O)c1ccc2c(c1)ncn2-c1cccc(C)c1)OC, the Potency was “inactive”.
With CCn1c2ccccc2c2cc(NC(=O)c3cc(OC)cc(OC)c3)ccc21 the Potency was active: 0.731 µM.
For COc1ccc(OC)c(C(=O)c2c(C)oc3cc(Br)c(O)c(CN(C)C)c23)c1, the Potency was active: 20.6 µM.
For N#Cc1ccc(CSc2nnc(NC(=O)CCc3nc4ccccc4c(=O)[nH]3)s2)cc1, the Potency was “inactive”.
With CCN(CC)CCNC(=O)Cn1nc(Cc2ccccc2)c2ccccc2c1=O the Potency was inconclusive [inhibitor, single point].
For CCn1cc(CNCc2cn(-c3ccccc3C)nc2-c2ccc(OC)c(F)c2)cn1, the Potency was inconclusive [inhibitor, single point].
With CCCCNC1=C(Br)C(=O)CC(C)(C)C1 the Potency was inconclusive [inhibitor, single point].
With COc1cccc(-c2nc(SCC(=O)NCC3CCCO3)c(-c3ccc(C)cc3)[nH]2)c1 (centres undefined) the Potency was inconclusive [inhibitor, single point].
With COc1ccc(NC(=O)Cn2c(=O)n(CCC(C)C)c(=O)c3cccnc32)cc1Cl the Potency was inconclusive [inhibitor, single point].
For CN1CCN(C(=S)NC(=O)/C=C/c2cccs2)CC1, the Potency was “inactive”.
With COc1ccc(NC(=O)c2ccc3c(=O)n4nc(Nc5ccccc5C)sc4nc3c2)cc1Cl the Potency was active: 5.8 µM.
For Cc1onc(-c2ccccc2Cl)c1C(=O)NNC(=O)c1ccc(F)cc1, the Potency was “inactive”.
In the case of Cc1ccc2c(c1)N(CC(=O)N1CCC(C)CC1)C(=O)c1cccnc1O2, the activity change, negative = growth inhibition is reported as inconclusive: -32.9% [inhibitor].
For O=C1C[C@@H]2C(=O)N(c3ccccc3)C(=O)[C@@H]2[C@@H]2CN(S(=O)(=O)c3ccccc3)[C@@H](c3ccccc3)[C@H]12, the Potency was “inactive”.
In the case of O=C(c1ccoc1)N1CCC2(CC1)Oc1ccc(F)cc1C(=O)C21CC(c2ccc(Cl)cc2)=NO1 (centres undefined), the Potency is reported as inconclusive [inhibitor, single point].
For CC(C)(C)OC(=O)N1CCCC(C(=O)Nc2ccc(C(=O)N3CCCCC3)cc2)C1 (centres undefined), the Potency was inconclusive [inhibitor, single point].
With CC(=O)C1=C(O)C(=O)N(c2ccc(C)cc2)C1c1ccccn1 (centres undefined) the Potency was “inactive”.
In the case of COc1ccc2[nH]cc(CCNc3ncnc4ccc(-c5ccc6c(c5)OCO6)cc34)c2c1, the Potency is reported as active: 16.4 µM.
With Cc1ccc(Cn2c(C(=O)O)c(CNC3CCCCC3)c3ccc(C)cc32)cc1 the Potency was “inactive”.
In the case of O=C(/C=C/Nc1ccc(Br)cc1F)c1ccco1, the Potency is reported as inconclusive [inhibitor, partial curve].
With CCN(C(=O)c1cc2c(=O)oc3ccccc3c2s1)c1ccc(C)c(C)c1 the Potency was inconclusive [inhibitor, partial curve].
In the case of CC(C)CCNc1nc2c(cc1C#N)COC(C)(C)C2, the activity change, negative = growth inhibition is reported as inconclusive: -30.4% [inhibitor].
With CCOC(=O)c1[nH]c2ccc(Cl)cc2c1NC(=O)/C=C/c1ccc2c(c1)OCO2 the Potency was inconclusive [inhibitor, single point].
With O=C(Nc1nc2ccccc2c(=O)s1)c1ccco1 the Potency was inconclusive [inhibitor, full curve, poor fit].
With O=C(CCC(=O)OCC(=O)c1ccccc1)Nc1cccc(Cl)c1 the Potency was “inactive”.
In the case of Cc1cc(C(=O)N/N=C/c2cc([N+](=O)[O-])cc(C)c2O)n[nH]1, the Potency is reported as inconclusive [inhibitor, partial curve].
With Cc1cccc(Cn2cc(/C=C(/C#N)C(=O)Nc3cccc(Cl)c3)c3ccccc32)c1 the Potency was inconclusive [inhibitor, partial curve].
With O=c1c(Cc2ccc(F)cc2)c(O)ccn1CCc1cnc[nH]1 the Potency was “inactive”.
For O=C(Nc1ccncc1)c1ccc(N2CCCC2=O)cc1, the Potency was inconclusive [inhibitor, partial curve].
In the case of COc1cc2cc(CN(Cc3cccnc3)C(=O)Nc3ccccc3)c(=O)[nH]c2cc1OC, the Potency is reported as inconclusive [inhibitor, partial curve].
For CCN(c1ccc(NC(=O)COC(=O)c2cccs2)cc1)C(C)C, the Potency was inconclusive [inhibitor, single point].
With Cc1ccc2nc(NC(=O)C3CC(=O)N(Cc4ccco4)C3)sc2c1 (centres undefined) the Potency was “inactive”.
With O=C(OCc1ccccc1)N1CCC2CC1c1c(Cl)cccc12 (centres undefined) the Potency was active: 18.4 µM.
With COc1ccc(CC(=O)NNC(=O)COc2ccc(Cl)cc2C)cc1S(=O)(=O)N1CCOCC1 the Potency was inconclusive [inhibitor, single point].
In the case of CC(=O)c1ccc(OC2(C)CCN(Cc3cccn3-c3nccs3)C2)cc1 (centres undefined), the Potency is reported as inconclusive [inhibitor, single point].
With Nc1nc2n(n1)C(c1ccco1)CC(c1ccccc1)N2 (centres undefined) the activity change, negative = growth inhibition was inconclusive: -23.6% [inhibitor].
With Cc1ccc(C(=O)NCC(c2ccc3c(c2)OCO3)N2CCN(c3ccc(F)cc3)CC2)cc1 (centres undefined) the Potency was active: 1.46 µM.
For CS(=O)(=O)c1ccc(/C=C2\C=Cc3ccccc32)cc1, the Potency was active: 20 µM.
